According to patent US20250243260A1 (ALPINE IMMUNE SCIENCES, published 2025):

target: T1, human CTLA-4 (human, UniProt P16410 36-223); assay: flow cytometry on CHO/CTLA-4 cells
T1 construct: whole, on cells; also called CHO/CTLA-4 cells
Description: Binding affinity to CD28 was determined using primary human T cells which endogenously express CD28. Binding to PD-L1 was determined using SCC152 cells transduced with human PD-L1. Binding to CTLA-4 was measured using Chinese hamster ovary (CHO) cells stably transduced to express human CTLA-4.
For staining and analysis by flow cytometry, 75,000 human T cells, SCC152/PD-L1 cells, or CHO/CTLA-4 cells were plated in 96-well round-bottom plates. Cells were spun down and resuspended in staining buffer (PBS (phosphate buffered saline), 1% BSA (bovine serum albumin), 1 mM EDTA, and 0.1% sodium azide) for 20 minutes to block non-specific binding. Afterwards, cells were centrifuged, stain buffer aspirated, and then resuspended in 50 μL of a 1:5 serial dilution of each CD80-Fc candidate variant starting at 100 nM ending at 0.8 nM. Primary staining was performed on ice for 60 minutes, before washing cells in […] staining buffer three times. PE-conjugated anti-human Fc (Jackson ImmunoResearch, USA) was diluted 1:250 in 50 μL staining buffer and added to cells and incubated another 30 minutes at 4° C. Cells were washed two times in 150 μL stain buffer and then fixed in 2% formaldehyde/PBS for 5 minutes at room temperature. Samples were analyzed CytoFLEX LX flow cytometer (Beckman Coulter, USA). Median Fluorescence Intensity (MFI) was calculated for each cell type using the CytExpert software from Beckman Coulter.

T1 sequence (P16410 36-223): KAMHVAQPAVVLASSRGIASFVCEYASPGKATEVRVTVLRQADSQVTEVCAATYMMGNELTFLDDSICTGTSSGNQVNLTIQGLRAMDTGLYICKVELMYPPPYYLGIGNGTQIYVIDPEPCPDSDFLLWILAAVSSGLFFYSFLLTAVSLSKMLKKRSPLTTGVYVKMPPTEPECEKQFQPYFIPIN

MFI at 0.8 nM | MFI at 4 nM | MFI at 20 nM | MFI at 100 nM | fold change vs WT CD80 at 20 nM | Binder
660 MFI | 1620 MFI | 6680 MFI | 25300 MFI | 0.01 fold | CD80_179 variant CD80 IgV-Fc (H18F, M42G, F59Y, V68N) (Fc fusion, also called CD80_179-Fc) VIHVTKEVKEVATLSCGFNVSVEELAQTRIYWQKEKKMVLTGMSGDMNIWPEYKNRTIYDITNNLSINILALRPSDEGTYECVVLKYEKDAFKREHLAEVTLSVKADGSGGGGS[omitted - human IgG4 Fc with S228P (EU numbers)]
310000 MFI | 452000 MFI | 512000 MFI | 534000 MFI | 0.62 fold | CD80_180 variant CD80 IgV-Fc (E10G, V11W, T28Y, M47L) (Fc fusion, also called CD80_180-Fc) VIHVTKEVKGWATLSCGHNVSVEELAQYRIYWQKEKKMVLTMMSGDLNIWPEYKNRTIFDITNNLSIVILALRPSDEGTYECVVLKYEKDAFKREHLAEVTLSVKADGSGGGGS[omitted - human IgG4 Fc with S228P (EU numbers)]
45700 MFI | 136000 MFI | 365000 MFI | 547000 MFI | 0.44 fold | CD80_181 variant CD80 IgV-Fc (K9S, E10R, V11Y, M47L, A71G) (Fc fusion, also called CD80_181-Fc) VIHVTKEVSRYATLSCGHNVSVEELAQTRIYWQKEKKMVLTMMSGDLNIWPEYKNRTIFDITNNLSIVILGLRPSDEGTYECVVLKYEKDAFKREHLAEVTLSVKADGSGGGGS[omitted - human IgG4 Fc with S228P (EU numbers)]
320000 MFI | 435000 MFI | 481000 MFI | 497000 MFI | 0.58 fold | CD80_182 variant CD80 IgV-Fc (E10G, V11W, E35G, M47L, A71G, Y87R) (Fc fusion, also called CD80_182-Fc) VIHVTKEVKGWATLSCGHNVSVEELAQTRIYWQKGKKMVLTMMSGDLNIWPEYKNRTIFDITNNLSIVILGLRPSDEGTYECVVLKREKDAFKREHLAEVTLSVKADGSGGGGS[omitted - human IgG4 Fc with S228P (EU numbers)]
363000 MFI | 498000 MFI | 538000 MFI | 587000 MFI | 0.65 fold | CD80_183 variant CD80 IgV-Fc (V11Y, T28Y, M47L, A71G, Y87R) (Fc fusion, also called CD80_183-Fc) VIHVTKEVKEYATLSCGHNVSVEELAQYRIYWQKEKKMVLTMMSGDLNIWPEYKNRTIFDITNNLSIVILGLRPSDEGTYECVVLKREKDAFKREHLAEVTLSVKADGSGGGGS[omitted - human IgG4 Fc with S228P (EU numbers)]
329000 MFI | 523000 MFI | 585000 MFI | 595000 MFI | 0.71 fold | CD80_184 variant CD80 IgV-Fc (V11Y, A26Q, M47L, A71G, Y87R) (Fc fusion, also called CD80_184-Fc) VIHVTKEVKEYATLSCGHNVSVEELQQTRIYWQKEKKMVLTMMSGDLNIWPEYKNRTIFDITNNLSIVILGLRPSDEGTYECVVLKREKDAFKREHLAEVTLSVKADGSGGGGS[omitted - human IgG4 Fc with S228P (EU numbers)]
332000 MFI | 575000 MFI | 645000 MFI | 634000 MFI | 0.78 fold | CD80_186 variant CD80 IgV-Fc (E7K, V11W, N63H, A71G, Y87K) (Fc fusion, also called CD80_186-Fc) VIHVTKKVKEWATLSCGHNVSVEELAQTRIYWQKEKKMVLTMMSGDMNIWPEYKNRTIFDITHNLSIVILGLRPSDEGTYECVVLKKEKDAFKREHLAEVTLSVKADGSGGGGS[omitted - human IgG4 Fc with S228P (EU numbers)]
242000 MFI | 571000 MFI | 616000 MFI | 614000 MFI | 0.74 fold | CD80_187 variant CD80 IgV-Fc (V11Y, H18Y, E35G, L85Q) (Fc fusion, also called CD80_187-Fc) VIHVTKEVKEYATLSCGYNVSVEELAQTRIYWQKGKKMVLTMMSGDMNIWPEYKNRTIFDITNNLSIVILALRPSDEGTYECVVQKYEKDAFKREHLAEVTLSVKADGSGGGGS[omitted - human IgG4 Fc with S228P (EU numbers)]
195000 MFI | 352000 MFI | 490000 MFI | 525000 MFI | 0.59 fold | CD80_188 variant CD80 IgV-Fc (E35D, V68L, L85E) (Fc fusion, also called CD80_188-Fc) VIHVTKEVKEVATLSCGHNVSVEELAQTRIYWQKDKKMVLTMMSGDMNIWPEYKNRTIFDITNNLSILILALRPSDEGTYECVVEKYEKDAFKREHLAEVTLSVKADGSGGGGS[omitted - human IgG4 Fc with S228P (EU numbers)]
3630 MFI | 13100 MFI | 46800 MFI | 131000 MFI | 0.06 fold | CD80_189 variant CD80 IgV-Fc (E10G, V11W, M47V, L85E) (Fc fusion, also called CD80_189-Fc) VIHVTKEVKGWATLSCGHNVSVEELAQTRIYWQKEKKMVLTMMSGDVNIWPEYKNRTIFDITNNLSIVILALRPSDEGTYECVVEKYEKDAFKREHLAEVTLSVKADGSGGGGS[omitted - human IgG4 Fc with S228P (EU numbers)]
300000 MFI | 468000 MFI | 544000 MFI | 538000 MFI | 0.66 fold | CD80_190 variant CD80 IgV-Fc (T28Y, M47L) (Fc fusion, also called CD80_190-Fc) VIHVTKEVKEVATLSCGHNVSVEELAQYRIYWQKEKKMVLTMMSGDLNIWPEYKNRTIFDITNNLSIVILALRPSDEGTYECVVLKYEKDAFKREHLAEVTLSVKADGSGGGGS[omitted - human IgG4 Fc with S228P (EU numbers)]
7800 MFI | 27500 MFI | 59000 MFI | 254000 MFI | 0.07 fold | CD80_191 variant CD80 IgV-Fc (V11Y, T28Y, M47L, V68L, L85E) (Fc fusion, also called CD80_191-Fc) VIHVTKEVKEYATLSCGHNVSVEELAQYRIYWQKEKKMVLTMMSGDLNIWPEYKNRTIFDITNNLSILILALRPSDEGTYECVVEKYEKDAFKREHLAEVTLSVKADGSGGGGS[omitted - human IgG4 Fc with S228P (EU numbers)]
291000 MFI | 503000 MFI | 591000 MFI | 577000 MFI | 0.71 fold | CD80_192 variant CD80 IgV-Fc (E7N, E35D, T101R) (Fc fusion, also called CD80_192-Fc) VIHVTKNVKEVATLSCGHNVSVEELAQTRIYWQKDKKMVLTMMSGDMNIWPEYKNRTIFDITNNLSIVILALRPSDEGTYECVVLKYEKDAFKREHLAEVRLSVKADGSGGGGS[omitted - human IgG4 Fc with S228P (EU numbers)]
13600 MFI | 43400 MFI | 149000 MFI | 399000 MFI | 0.18 fold | CD80_193 variant CD80 IgV-Fc (V11Y, M42W, T62A, L85E) (Fc fusion, also called CD80_193-Fc) VIHVTKEVKEYATLSCGHNVSVEELAQTRIYWQKEKKMVLTWMSGDMNIWPEYKNRTIFDIANNLSIVILALRPSDEGTYECVVEKYEKDAFKREHLAEVTLSVKADGSGGGGS[omitted - human IgG4 Fc with S228P (EU numbers)]
104000 MFI | 251000 MFI | 509000 MFI | 559000 MFI | 0.61 fold | CD80_194 variant CD80 IgV-Fc (V11Y, M42W, T62A) (Fc fusion, also called CD80_194-Fc) VIHVTKEVKEYATLSCGHNVSVEELAQTRIYWQKEKKMVLTWMSGDMNIWPEYKNRTIFDIANNLSIVILALRPSDEGTYECVVLKYEKDAFKREHLAEVTLSVKADGSGGGGS[omitted - human IgG4 Fc with S228P (EU numbers)]
